Experiment [1] has as its target COP1 (Constitutive Photomorphogenic 1), wild type, endogenous in A375 cells (human (endogenous in A375)) (UniProt Q8NHY2). In words: co-IP; COP1 immunoprecipitated from lysates of WT or COP1^K539E A375 cells with anti-COP1 antibody (28A4, Genentech) and magnetic protein A/G beads; immunoprecipitates blotted against ETV5; lysis in 50 mM HEPES pH 7.2, 120 mM NaCl, 1 mM EDTA, 0.1% NP-40.

Sequences of proteins named here, by UniProt entry; tags and fusion partners are left off. A change or cut given only in a name is not applied to a line headed by its entry.
UniProt Q8NHY2: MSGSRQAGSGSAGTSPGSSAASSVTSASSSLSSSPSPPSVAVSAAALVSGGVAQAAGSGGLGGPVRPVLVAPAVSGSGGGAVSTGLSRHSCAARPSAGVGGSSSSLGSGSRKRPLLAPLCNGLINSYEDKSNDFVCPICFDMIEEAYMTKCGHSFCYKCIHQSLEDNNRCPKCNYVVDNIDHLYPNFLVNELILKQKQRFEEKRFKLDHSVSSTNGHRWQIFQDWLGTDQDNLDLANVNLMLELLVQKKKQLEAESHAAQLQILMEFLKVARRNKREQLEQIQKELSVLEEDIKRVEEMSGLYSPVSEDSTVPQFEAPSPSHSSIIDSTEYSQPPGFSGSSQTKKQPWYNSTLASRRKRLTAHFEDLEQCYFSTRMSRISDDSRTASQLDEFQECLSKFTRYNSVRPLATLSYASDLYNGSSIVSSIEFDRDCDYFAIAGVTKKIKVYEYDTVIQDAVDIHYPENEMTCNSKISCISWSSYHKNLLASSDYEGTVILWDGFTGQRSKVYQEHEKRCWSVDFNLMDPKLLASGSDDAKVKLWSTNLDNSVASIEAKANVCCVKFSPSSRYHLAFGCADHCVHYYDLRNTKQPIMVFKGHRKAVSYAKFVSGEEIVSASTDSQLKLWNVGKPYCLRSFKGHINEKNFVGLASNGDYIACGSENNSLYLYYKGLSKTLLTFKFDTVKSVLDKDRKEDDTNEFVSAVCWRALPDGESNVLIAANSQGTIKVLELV
UniProt P41161: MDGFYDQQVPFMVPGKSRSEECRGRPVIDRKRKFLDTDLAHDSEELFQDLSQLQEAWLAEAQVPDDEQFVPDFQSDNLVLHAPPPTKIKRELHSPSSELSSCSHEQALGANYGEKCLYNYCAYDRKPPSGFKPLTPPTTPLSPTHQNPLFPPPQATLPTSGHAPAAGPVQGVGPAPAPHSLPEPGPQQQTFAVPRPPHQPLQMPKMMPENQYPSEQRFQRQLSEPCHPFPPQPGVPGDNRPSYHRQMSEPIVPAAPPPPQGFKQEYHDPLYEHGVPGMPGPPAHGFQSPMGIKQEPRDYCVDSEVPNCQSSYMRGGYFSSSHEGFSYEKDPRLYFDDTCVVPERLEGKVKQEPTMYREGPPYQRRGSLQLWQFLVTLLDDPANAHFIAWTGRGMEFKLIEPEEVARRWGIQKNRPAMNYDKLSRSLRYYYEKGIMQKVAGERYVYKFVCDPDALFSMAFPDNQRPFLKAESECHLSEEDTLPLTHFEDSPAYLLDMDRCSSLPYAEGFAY

For experiment [2], the target named is COP1^K539E, expressed from the edited endogenous COP1 locus of A375 cells (human (endogenous in A375)) (UniProt Q8NHY2). Described as above.
The target of experiment [3] is COP1^(E511K, E513K, K539E) (human) (UniProt Q8NHY2). In words: co-IP; ETV5 coimmunoprecipitated with COP1 mutants (Figure S2H); cells and antibody not stated.
Experiment [4] addresses COP1^(E511K, K539E) (human) (UniProt Q8NHY2). The description is as above.
The target in another experiment is COP1^K472E (human) (UniProt Q8NHY2). The experiment can be described thus: co-IP; Western blots of transfected 293T cells (Figure 2G); WT and mutant genes overexpressed from a PRK5-based vector, Lipofectamine; which protein was precipitated not given. A general note: A western blot detects proteins with antibodies after separation by electrophoresis.
Experiment [5] deals with COP1 wild type, overexpressed in 293T cells (human) (UniProt Q8NHY2). Described as above.

No constants are given. Whether binding was seen depends on the method and setting. Binding seen in cells or lysates may run through a third protein. Some entries that bind do so weakly or less than the wild type.

Turning to “ETV5, endogenous in A375 cells (from UniProt P41161 1-510)”, the binding entry is “binds” in experiment [1] and “no binding” in experiment [2].
Turning to “ETV5 in transfected 293T cells (from UniProt P41161 1-510)”, the binding entry was “binds” in experiment [3], “binds weakly” in experiment [4], “no binding” with COP1^K472E (human) and “binds” in experiment [5].
